Measured values published in the RNAGym collection of RNA variant scans (doi:10.1093/nar/gkz1192).
Read counts are not given, so values of variants with three or more changes are uncertain.

B1: CPEB3 Ribozyme (parent)
chain: UAACAGGGGGCCACAGCAGAAGCGUUCACGUCGCAGCCCCUGUCAGAUUCUGGUGAAUCUGCGAAUUCUGCUGUAUAUCUC

Variants of: B1
Assay: self-cleavage, relative activity (ratio to wild type); higher = more cleavage; in vitro, sequencing
In short: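 Barcoded CPEB3 ribozyme mutants, produced by rounds of error-prone PCR, self-cleaved while being transcribed with T7 RNA polymerase for 5 hours at 37°C and during a subsequent 15 min DNase I step before EDTA was added. Sequencing of template-switched cDNA on Illumina gave cleaved and total reads, and DNA sequencing assigned barcodes to variants. Each variant's relative activity is its cleaved/total read fraction divided by the unmutated ribozyme's fraction, averaged across three batches. A variant needed a minimum of 5 reads.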
Variant U25C U49C A57G has a self-cleavage of 0.29. Variant U25C U49C C81U has a self-cleavage of 0.06. Variant U25C U49C G63A U69C has a self-cleavage of 0.31. With U25C U49C U51A U54C G55A U78A the self-cleavage was 0.07. In the case of U25C U49C U51A U76A, the self-cleavage is reported as 0.07. With U25C U49C U60C the self-cleavage was 0.25. For U25C U49C U60G, the self-cleavage was 0.06. For U25C U49C U74A, the self-cleavage was 0.24. For U25C U51A A64G, the self-cleavage was 0.14. U25C U51A A64G U69C gave a self-cleavage of 0.1. U25C U51A U54C A57U showed a self-cleavage of 0.06. With U25C U51A U60C the self-cleavage was 0.2. In the case of U25C U51A U66A, the self-cleavage is reported as 0.11. U25C U51A U66C showed a self-cleavage of 0.35. U25C U51A U66G G73U showed a self-cleavage of 0.07. Work on U25C U51A U67A U69A yielded a self-cleavage of 0.37. U25C U51A U67C A75U showed a self-cleavage of 0.07. With U25C U51A U72A the self-cleavage was 0.33. With U25C U51A U74C the self-cleavage was 0.33. U25C U51C A57G showed a self-cleavage of 0.23. U25C U51C U54C showed a self-cleavage of 0.29. For U25C U51C U54G A57U C62A, the self-cleavage was 0.16. U25C U51C U60A showed a self-cleavage of 0.15. For U25C U51C U60A A64G U69C, the self-cleavage was 0.06. Work on U25C U51C U60A A65G yielded a self-cleavage of 0.09. U25C U51C U60C U80A gave a self-cleavage of 0.12. U25C U51C U69A gave a self-cleavage of 0.36. For U25C U51C U78A, the self-cleavage was 0.18. Variant U25C U51C U80A has a self-cleavage of 0.25. In the case of U25C U51G A56U, the self-cleavage is reported as 0.21. U25C U51G A65G U80C showed a self-cleavage of 0.08. Work on U25C U51G C59U C68G U69C yielded a self-cleavage of 0.15. U25C U51G U60A A75G showed a self-cleavage of 0.17. With U25C U54A A56U the self-cleavage was 0.4. U25C U54A A77C gave a self-cleavage of 0.28. In the case of U25C U54A C71A, the self-cleavage is reported as 0.12. Variant U25C U54A U67G U72A has a self-cleavage of 0.27. Work on U25C U54A U80A yielded a self-cleavage of 0.3. U25C U54C A56U showed a self-cleavage of 0.22. U25C U54C A77G U80C gave a self-cleavage of 0.15. U25C U54C A77U gave a self-cleavage of 0.21. Variant U25C U54C U60A C62G has a self-cleavage of 0.11. For U25C U54C U60C U74C, the self-cleavage was 0.14. With U25C U54C U66C the self-cleavage was 0.27. With U25C U54C U67C U76C the self-cleavage was 0.32. U25C U54C U74C showed a self-cleavage of 0.11. Work on U25C U54C U80C yielded a self-cleavage of 0.36. U25C U54G A56U U78C gave a self-cleavage of 0.06. Work on U25C U54G A75U yielded a self-cleavage of 0.07. Work on U25C U58A U78C yielded a self-cleavage of 0.32. U25C U58C U69C gave a self-cleavage of 0.15. U25C U58C U72A gave a self-cleavage of 0.12. Variant U25C U60A A64G A65G G73A has a self-cleavage of 0.2. U25C U60A A64U gave a self-cleavage of 0.13. Work on U25C U60A C71U C79U U80A yielded a self-cleavage of 0.04. Work on U25C U60A U72C yielded a self-cleavage of 0.47. Variant U25C U60C A75G has a self-cleavage of 0.11. With U25C U60C A77G the self-cleavage was 0.16. In the case of U25C U60C U66C U72C U78C, the self-cleavage is reported as 0.13. U25C U60G U80A showed a self-cleavage of 0.09. Work on U25C U66A U72A yielded a self-cleavage of 0.09. For U25C U66C A77U, the self-cleavage was 0.21. For U25C U66C U67A, the self-cleavage was 0.22. Variant U25C U66C U69C has a self-cleavage of 0.22. U25C U66C U69C U80G showed a self-cleavage of 0.05. With U25C U66C U74A the self-cleavage was 0.09. For U25C U67A U72C, the self-cleavage was 0.27. Variant U25C U67C C68G has a self-cleavage of 0.07. For U25C U67C U74A, the self-cleavage was 0.15. Work on U25C U69C U74A yielded a self-cleavage of 0.16. For U25C U72A U74C, the self-cleavage was 0.2. With U25C U72A U78C the self-cleavage was 0.23. For U25C U72C A75G, the self-cleavage was 0.39. Variant U25C U72C A77G has a self-cleavage of 0.16. With U25C U74C A75U the self-cleavage was 0.16. U25G A28G A35G C39G U49C U72C U80G showed a self-cleavage of 0.2. In the case of U25G A28G A45G A56G, the self-cleavage is reported as 0.35. Work on U25G A28U U31C yielded a self-cleavage of 0.41. U25G A35G U43C showed a self-cleavage of 0.44. Variant U25G A35U U51G G63A A65G G73C has a self-cleavage of 0.19. In the case of U25G A45G U78C, the self-cleavage is reported as 0.22. With U25G A45U U51G A56U U69A U80C the self-cleavage was 0.09. U25G A47G A56G U72C gave a self-cleavage of 0.25. Work on U25G A47G U51A U54A U67C U80C yielded a self-cleavage of 0.08. For U25G A47G U78A, the self-cleavage was 0.63. U25G A65G U67C gave a self-cleavage of 0.13. U25G A65G U78C showed a self-cleavage of 0.07. In the case of U25G A65U U74C, the self-cleavage is reported as 0.29. U25G C32U A47C G61A showed a self-cleavage of 0.05. Variant U25G C34A U43C A45C A64U has a self-cleavage of 0.07. For U25G C37U U54C A56G C62A U78C, the self-cleavage was 0.13. With U25G G33A U41A U58C U60A C68U the self-cleavage was 0.12. U25G G33A U51C U58C gave a self-cleavage of 0.14. With U25G U26A U41C U49A U67C the self-cleavage was 0.24. With U25G U26A U48C the self-cleavage was 0.53. For U25G U41A A45U A47U, the self-cleavage was 0.23. U25G U41A G73A U78C gave a self-cleavage of 0.07. With U25G U41A U80C the self-cleavage was 0.1. In the case of U25G U41C A45G, the self-cleavage is reported as 0.14. For U25G U41C G70U, the self-cleavage was 0.05. Variant U25G U49C A64G has a self-cleavage of 0.13. U25G U54C U66C showed a self-cleavage of 0.39. U25G U66A U69C showed a self-cleavage of 0.07. Variant U25G U72C U80C has a self-cleavage of 0.45. With U26A A28C U48C G61C the self-cleavage was 0.07. With U26A A28G A47G U66C the self-cleavage was 0.16. U26A A28G A56G U78A showed a self-cleavage of 0.38. For U26A A28G A75U U80C, the self-cleavage was 0.5. With U26A A28G C32A G33C G55U U76C U80C the self-cleavage was 0.07. In the case of U26A A28G C62A U72A G73U U78C, the self-cleavage is reported as 0.06. U26A A28G U31A showed a self-cleavage of 0.14. With U26A A28G U31C the self-cleavage was 0.14. For U26A A28G U43C U67A C68U, the self-cleavage was 0.17. U26A A28G U49A A57G U74A U78C gave a self-cleavage of 0.13. Variant U26A A28G U49A U78C U80A has a self-cleavage of 0.09. Work on U26A A28G U49C U58C U76C yielded a self-cleavage of 0.03. U26A A28G U60C A64U U78C gave a self-cleavage of 0.09. Work on U26A A28U A35G A57G yielded a self-cleavage of 1.14. U26A A28U A35U U72G U78C showed a self-cleavage of 0.18. For U26A A28U A47G U72A U74A A75G, the self-cleavage was 1.2. U26A A28U U41A U67A U80C gave a self-cleavage of 0.11. U26A A28U U49C gave a self-cleavage of 0.14. Variant U26A A28U U74A has a self-cleavage of 0.87. U26A A35C A45G U48C showed a self-cleavage of 0.1. For U26A A35C A56U A57G C59A, the self-cleavage was 0.3. In the case of U26A A35G A47G, the self-cleavage is reported as 1.36. U26A A35G A57U gave a self-cleavage of 1.04. Variant U26A A35G C39A A57G has a self-cleavage of 0.52. Work on U26A A35G U41A U49C A57C U66C U78C yielded a self-cleavage of 0.07. Work on U26A A35G U43C U60A yielded a self-cleavage of 0.12. U26A A35G U54A G55U G63U showed a self-cleavage of 1.26. With U26A A35U U41A U60C A77U the self-cleavage was 0.1. For U26A A35U U41C U43C A64G U66G, the self-cleavage was 0.17. With U26A A35U U41C U43C U51C U67A the self-cleavage was 0.08. In the case of U26A A35U U41C U58C, the self-cleavage is reported as 0.17. U26A A35U U48C U67C A77G gave a self-cleavage of 0.07. Variant U26A A35U U51C U58C has a self-cleavage of 0.11. With U26A A35U U54G the self-cleavage was 0.25. With U26A A35U U78C the self-cleavage was 0.21. In the case of U26A A35U U80C, the self-cleavage is reported as 0.55. In the case of U26A A45G A47G, the self-cleavage is reported as 0.41. In the case of U26A A45G A56C U60C, the self-cleavage is reported as 0.49. U26A A45G A57G U60C A65G gave a self-cleavage of 0.25. U26A A45G C59A showed a self-cleavage of 0.3. With U26A A45G G52A A56G G63A the self-cleavage was 0.29. Variant U26A A45G G63A has a self-cleavage of 0.64. With U26A A45G U49C A57C the self-cleavage was 0.2. With U26A A45G U58C the self-cleavage was 0.2. Variant U26A A45U A77G U80C has a self-cleavage of 0.4. U26A A47G A64G U74A U78C showed a self-cleavage of 0.86. U26A A47G U58C A65G U67A gave a self-cleavage of 0.07. U26A A47G U66C showed a self-cleavage of 0.32. For U26A A47G U69G U78C, the self-cleavage was 0.35. With U26A A47U U72A U74A the self-cleavage was 0.55. For U26A A47U U76A, the self-cleavage was 0.33. Variant U26A A56G A57G has a self-cleavage of 0.16. In the case of U26A A56G A64U, the self-cleavage is reported as 0.21. Work on U26A A56G A65C yielded a self-cleavage of 0.16. Variant U26A A56G U76C has a self-cleavage of 0.79. U26A A56G U80C gave a self-cleavage of 0.64. U26A A56U U67C showed a self-cleavage of 0.25. Work on U26A A57G A65G U66A yielded a self-cleavage of 0.1. U26A A57G U58G showed a self-cleavage of 0.04. Work on U26A A57G U72A U76A yielded a self-cleavage of 0.54. In the case of U26A A64U U72A, the self-cleavage is reported as 0.39. For U26A A65G A77U, the self-cleavage was 0.39. For U26A A65G C81U, the self-cleavage was 0.28.
